Reference: paper PMC4336329 (PLoS ONE, 2015)
Among all 310,000 compounds or so, about 14,000 (4.5%) showed an effect of 50% or more. Effects have a minus sign here. Some of the results follow.

molecular target: human ether-à-go-go-related gene (hERG) potassium channel (human, UniProt Q12809); experiment: primary screen, population patch clamp on CHO cells stably expressing hERG
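Note: peak tail current of the secondary pulse compared with the same well before compound.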

Chain of human ether-à-go-go-related gene (hERG) potassium channel (Q12809 whole entry, looked up): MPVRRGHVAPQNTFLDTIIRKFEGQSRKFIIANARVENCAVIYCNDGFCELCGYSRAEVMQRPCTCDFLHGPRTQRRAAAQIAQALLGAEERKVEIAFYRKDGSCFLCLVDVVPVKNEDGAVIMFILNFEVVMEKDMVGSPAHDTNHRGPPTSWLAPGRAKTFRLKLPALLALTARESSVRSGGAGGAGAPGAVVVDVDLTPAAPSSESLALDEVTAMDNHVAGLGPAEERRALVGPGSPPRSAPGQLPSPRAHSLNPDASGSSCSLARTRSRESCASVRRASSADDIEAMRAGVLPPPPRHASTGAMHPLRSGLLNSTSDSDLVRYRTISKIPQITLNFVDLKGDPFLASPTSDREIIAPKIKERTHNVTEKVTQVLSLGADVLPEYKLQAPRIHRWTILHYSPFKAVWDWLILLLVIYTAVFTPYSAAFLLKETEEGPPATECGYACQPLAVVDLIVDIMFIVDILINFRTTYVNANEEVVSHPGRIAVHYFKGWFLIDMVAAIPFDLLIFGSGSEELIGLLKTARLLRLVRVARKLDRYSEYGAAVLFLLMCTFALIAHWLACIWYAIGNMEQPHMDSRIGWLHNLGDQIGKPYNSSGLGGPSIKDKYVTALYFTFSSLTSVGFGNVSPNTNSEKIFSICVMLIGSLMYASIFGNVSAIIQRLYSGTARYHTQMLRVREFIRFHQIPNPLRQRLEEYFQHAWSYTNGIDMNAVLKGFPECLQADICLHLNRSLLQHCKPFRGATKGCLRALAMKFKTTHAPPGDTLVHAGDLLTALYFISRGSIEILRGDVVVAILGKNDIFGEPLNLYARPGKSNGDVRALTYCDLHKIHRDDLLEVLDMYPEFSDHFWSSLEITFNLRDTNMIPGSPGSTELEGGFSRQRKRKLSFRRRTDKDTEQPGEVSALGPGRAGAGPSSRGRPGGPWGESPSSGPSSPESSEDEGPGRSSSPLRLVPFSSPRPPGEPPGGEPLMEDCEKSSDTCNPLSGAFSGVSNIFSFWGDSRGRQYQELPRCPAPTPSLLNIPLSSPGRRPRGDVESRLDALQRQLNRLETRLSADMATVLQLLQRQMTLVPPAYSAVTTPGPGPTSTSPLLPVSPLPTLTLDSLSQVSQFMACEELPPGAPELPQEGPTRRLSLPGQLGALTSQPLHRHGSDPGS

SMILES	hERG current change (%, negative = inhibition) at 10uM
O=C(Nc1ccc2nn(-c3ccc(F)cc3)nc2c1)c1cccnc1	10.3%
Cc1ccc(C(=O)Nc2ccc(S(=O)(=O)N3CCN(C)CC3)cc2)o1	5.28%
N#C/C(=C\c1c(N2CCC(C(N)=O)CC2)nc2ccccn2c1=O)C(=O)NC1CCCCC1	20.9%
O=S(=O)(NCCc1ccccc1)c1ccccc1	2.61%
O=[N+]([O-])/C(=C\Nc1ccc(F)cc1F)S(=O)(=O)c1ccccc1	17.8%
Cl.O=C(CN1CCCCC1)Nc1cccc(Cl)c1	-28.8%
O=C(COC(=O)c1ccc(Cl)nc1)Nc1nnc(-c2ccccc2)o1	-0.704%
Cc1cc(OCn2ccc(C(=O)O)n2)ccc1Cl	4.12%
O=C(NCc1ccco1)c1ccccc1NS(=O)(=O)c1ccc2c(c1)OCCO2	-13.8%
CCS(=O)(=O)N1CCN(C(=O)c2ccco2)CC1	2.66%
COc1cccc(C(=O)NCc2cn3ccsc3n2)c1	6.73%
CCOC(=O)C1=C(C)Nc2ccccc2N=C1NC(=O)c1cccc(S(=O)(=O)N(C)C)c1	-18.7%
CCN(CC1COc2ccccc2O1)C(=O)CN1C(=O)NC(C)(c2ccc(C)cc2)C1=O (stereo not drawn)	-28.8%
CN(C1CCCCC1)S(=O)(=O)c1ccc(NC(=O)CCC(=O)O)cc1	3%
Cc1nn(-c2ccccc2)c(Cl)c1/C=C1/C(=N)N2N=C(C(C)C)SC2=NC1=O	9.87%
O=C(COc1ccccc1)N1CCN=C1SCc1ccc(F)cc1	-27.4%
Cc1c(C)c2c(OCC(=O)N[C@@H](C)C(=O)O)cc3c(c2oc1=O)CCC(C)(C)O3	16%
COc1ccc(C(=O)Nc2ccccc2)cc1NC(=O)c1cccs1	-74%
CC(C)CCOC(=O)C1C(c2ccccc2)C(C(=O)O)C1c1ccccc1 (stereo not drawn)	2.74%
CCN(CC)C(=O)/C=C/c1ccccc1	6.73%
COc1ccc2nc(C)c3c(c2c1)OC(C(C)(Cl)Br)C3 (stereo not drawn)	-34%
CCn1c(=O)c(C(=O)Nc2ccccc2F)c(O)c2ccccc21	17.2%
Cc1c(NC(=O)N(C)c2ccccc2)c(=O)n(-c2ccccc2)n1C	12.6%
CCOC(=O)c1ccc(NC(=O)CCNS(=O)(=O)c2ccc3c(c2)oc(=O)n3C)cc1	6.45%
